Data taken from PubChem BioAssay AID1745845 (National Center for Advancing Translational Sciences (NCATS), 2022).
Among all 360,000 compounds or so, about 2,600 (0.72%) were called active. Inconclusive means that the source gave no clear call. Such entries were picked first, then a sample of the others. The call rests on the fitted dose curve; in most records, active means well fitted inhibition curve with a large enough effect; inconclusive means small, poorly fitted or top-dose-only effect; inactive means no such curve, though single readings can be large or run the other way. Potencies of inconclusive entries are doubtful fits and often do not repeat.

Test: Primary qHTS for Inhibitors of ATXN expression; further: nearly all actives have a fitted effect of over 55% in size
Conditions: HEK-293 ATXN2-luciferase reporter, luminescence, 24 h; activity change, negative = inhibition: at 57 µM (top of the series)
Outline: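 ATXN2-luciferase reporter cells (luciferase flanked by upstream and downstream ATXN2 gene portions) were treated 24 h at 37 °C with compounds at up to 57 uM. SteadyGlo luminescence gave expression; GF-AFC fluorescence gave viability.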
On the % scale 0 is the no-effect control and ±100 the full control effect; potency means the concentration at half of the fitted maximal effect; tags describe the fitted curve by direction and shape.

| SMILES | activity change, negative = inhibition | Potency |
| --- | --- | --- |
| COc1ccc(-c2cc(C(F)(F)F)c3c(N)c(C(=O)NCCSC)sc3n2)cc1 | inactive: -34.9% | – |
| O=C1C(O)=C(O)C(=O)c2ccccc21 | – | inconclusive: 20 µM [inhibitor, partial curve] |
| O=C(N/N=C\c1ccc(F)cc1)c1csnn1 | inactive: 17.4% | – |
| Cc1ccc(N2CCN(S(=O)(=O)c3ccc4oc(=O)ccc4c3)CC2)c(C)c1 | inactive: -16.2% | – |
| CCCCCCCCc1ccc(CCC(N)(CO)CO)cc1 | – | active: 30.6 µM |
| Cc1ccc(CSc2nc3ccccc3c(=O)n2CCCC(=O)NCc2ccco2)cc1 | – | inconclusive: 31.6 µM [inhibitor, single point] |
| O=C(NCCN1CCN(c2ccccc2)CC1)Nc1cccc(Br)c1 | inactive: -20.2% | – |
| O=C1CCCN1c1ccc(CNS(=O)(=O)c2ccc(F)cc2)cc1 | inactive: -19.5% | – |
| O=C(Nc1nc(-c2ccccc2)cs1)c1ccc2c(=O)n3c(nc2c1)CCCCC3 | – | active: 14.1 µM |
| COc1ccc(NC(=O)N(C)[C@H]2C[C@H]3c4[nH]c5ccc(-c6cccc(C)c6)cc5c4CCN3C[C@H]2[C@H](C)O)cc1 | – | active: 25.1 µM |
| CC(C)(C)C(=O)Nc1ccc(C(=O)N/N=C/c2ccccc2OC(=O)c2ccc(Cl)cc2Cl)cc1 | – | inconclusive: 28.2 µM [inhibitor, partial curve, poor fit] |
| COc1cccc(-c2ccc(NC(=O)C3CCCN(Cc4cnn(C(C)C)c4)C3)cc2)c1 (centres undefined) | – | inconclusive: 39.8 µM [inhibitor, single point] |
| COc1ccc(N(C(=O)CCl)C(C(=O)NCCc2ccccc2)c2cccs2)cc1Cl (centres undefined) | – | active: 1.78 µM |
| O=C(/C(=C/O)N=Nc1ccccc1)c1ccc(Cl)cc1 | – | inconclusive: 25.1 µM [inhibitor, partial curve, poor fit] |
| COc1ccc(NC(C)=[N+](C)CCNS(=O)(=O)c2ccc(Cl)cc2)cc1 | – | inconclusive: 3.98 µM [inhibitor, partial curve, poor fit] |
| CS(=O)(=O)N(CC(O)CON=C1c2ccccc2-c2ccccc21)c1ccc(F)cc1 (centres undefined) | – | inconclusive: 25.1 µM [inhibitor, single point] |
| Cc1ccc(OCC(=O)N2CCN(c3nnc(-c4ccc(C)cc4)c4ccccc34)CC2)cc1 | – | active: 28.2 µM |
| CC1(C)Cc2c(sc3[nH]c(=S)n(Cc4ccco4)c(=O)c23)CO1 | – | inconclusive: 28.2 µM [inhibitor, single point] |
| COC(=O)c1c(NC(=O)c2ccc(S(=O)(=O)N(C)C3CCCCC3)cc2)sc2c1CCN(C)C2 | – | inconclusive: 39.8 µM [inhibitor, single point] |
